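Five concentrations, 48 hours, 96-well plates. Here, GI50 denotes the concentration required for 50% inhibition of growth.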 Active and inactive are the calls of the source. Rule as the data show it: active = GI50 up to about 1.1 µM and inactive = higher.
Tested on: NCI-H322M
Assay: growth of human tumour cells (NCI), 48 h

Compound | GI50
N=C(N)NC(=N)Nc1ccc(S(N)(=O)=O)cc1 | inactive: > 100 µM
C=C1CCCC(C)(C)[C@@H]1CC/C(C)=C/Cn1c2cccc(=O)c-2nc2ccccc21 | inactive: 2.24 µM
O=C(Cc1ccccc1)C(c1ccccc1)S(=O)(=O)c1ccccc1 (configuration not stated) | inactive: > 100 µM
COc1ccc2[nH]c3ccc4cc[n+](CCN5CCC(C6CCN(CC[n+]7ccc8ccc9[nH]c%10ccc(OC)cc%10c9c8c7)CC6)CC5)cc4c3c2c1 | inactive: 19.5 µM
COc1cc([C@@H]2c3cc4c(cc3[C@@H](NCc3cccc(C#N)c3)C3COC(=O)[C@@H]32)OCO4)cc(OC)c1O (some centres not stated) | inactive: 13.9 µM
COc1nc(/C=N/NC(N)=S)nc(OC)n1 | inactive: 57.7 µM
Clc1ccc(C(c2ccc(Cl)cc2)c2ccccn2)cc1 | inactive: 21.9 µM
O=C(/C(=C(/Br)I)c1ccccc1)c1ccccc1 | inactive: 15.7 µM
CCOC(=O)NN(C(=O)OCC)C(C(=O)c1ccc(Cl)cc1)=C1NCCN1 | inactive: > 100 µM
CN(C)C(=N)NC(N)=S | inactive: > 100 µM
CCOC(=O)C(NC(=O)OCc1ccccc1)C(=O)O (configuration not stated) | inactive: > 100 µM
C=C1C(=O)O[C@H]2[C@H]1[C@H](OC(=O)/C(C)=C\C)CC(=C)[C@@H]1[C@H](O)[C@H]3O[C@@]3(C)[C@@]12O [EUPATUNDIN] | inactive: > 100 µM
CC(C(=O)[O-])S(=O)(=O)O.CCc1c2cc(OC)c(OC)cc2cc2c3cc(OC)c(OC)cc3cc[n+]12 | inactive: 28.6 µM
CCCCSC1=N/C(=C\c2ccc(N(C)C)cc2)C(=O)N1 | inactive: 30 µM
CC1=NN(C(=O)Cc2ccccc2)C(=O)/C1=C\c1cccc(O)c1 | inactive: > 100 µM
CCCCCC/C=C\CCCCCCCCC(=O)c1cccc(OC)c1OC | inactive: > 100 µM
O=C(O)C(Cc1ccccc1)NCc1c(O)ccc2c(-c3ccccc3)cc(=O)oc12 (configuration not stated) | inactive: > 100 µM
COc1ccc2nc3n(c2c1)C(c1c(F)cccc1Cl)SC3 (configuration not stated) | inactive: > 100 µM
Cc1ccc([N+](=O)[O-])cc1NC(=O)C(=O)C(C(=O)c1ccccc1F)C1OC(=O)c2ccccc21 (configuration not stated) | inactive: 36.1 µM
CCN(CC)CC1CN=C(N)O1 (configuration not stated) | inactive: > 100 µM
Clc1ncnc2c1nc(C#Cc1ccccc1)n2Cc1ccccc1 | inactive: 14.7 µM
O=C1Nc2ccccc2Nc2ccncc21 | inactive: > 100 µM
CC1(C)O[C@@H](CP(c2ccc3ccccc3c2)c2ccc3ccccc3c2)[C@H](CP(c2ccc3ccccc3c2)c2ccc3ccccc3c2)O1 | inactive: > 100 µM

Compound | GI50
COC(=O)/C(C#N)=C1\CCC(OC)N1C (configuration not stated) | inactive: > 100 µM
CCOC(=O)NC(=O)c1c[nH]c(=O)[nH]c1=O | inactive: > 100 µM
COC(=O)C(C(=O)C(=O)Nc1nnc(S)[nH]1)c1csc(-n2nc(-c3ccccc3)cc2-c2ccccc2)n1 (configuration not stated) | inactive: > 100 µM
CCOC(=O)C1(C/C=C/CCl)CCCC1=O (configuration not stated) | inactive: 21.8 µM
O=C1CCCCCCCCCCC1CN(Cc1ccccc1)Cc1ccccc1 (configuration not stated) | inactive: > 100 µM
N#Cc1c2nc3ccccc3nc2n2ccc3ccccc3c12 | inactive: > 100 µM
CCc1cn2c(/C=N/N=C(N)N)c(-c3cc(C)c(Cl)cc3Cl)nc2s1 | inactive: 1.92 µM
O=c1c(-c2ccccc2)c2oc(c1-c1ccccc1)CS(=O)(=O)CCC2 | inactive: > 100 µM
COc1cc(/C=C\c2ccc(Br)cc2)cc(OC)c1OC | active: 0.00381 µM
CC(C)[C@H](NC(=O)OCc1ccccc1)C(=O)N[C@H](/C=C/C(=O)OC(C)(C)C)CO | inactive: > 100 µM
CCC(C)C(N)C(=O)N/N=C\c1c2c(nc3ccccc13)-c1cc3c(c(=O)n1C2)COC(=O)[C@]3(O)CC (some centres not stated) | active: 0.817 µM
CN1CCN(c2cc3nsnc3c3nsnc23)CC1 | inactive: > 10 µM
O=C1c2ccccc2C(=O)c2c1ccc1nc3c(nc21)-c1c2ccccc2cc2cccc-3c12 | inactive: > 86.7 µM
COc1ccc(/C=C2\N=C(SC)N(CN3CCOCC3)C2=O)cc1 | inactive: > 100 µM
CCCCCn1cnc2c1S(=O)(=O)N(C)C(NC(=O)c1ccccc1)=N2 | inactive: > 100 µM
COc1cc(NS(C)(=O)=O)ccc1Nc1ccnc2ccc3[nH]ccc3c12 | inactive: 11.8 µM
CC(C)(C)C1CC[C@H](O)[C@H]([C@@H](O)CC2CC(=O)N(c3ccccc3)C(=O)C2)C1 (some centres not stated) | inactive: > 100 µM
Nc1ccc(/N=N/c2ccc(-c3ccc(/N=N/c4c(S(=O)(=O)O)cc5cc(S(=O)(=O)O)c(/N=N/c6ccc([N+](=O)[O-])cc6)c(N)c5c4O)cc3)cc2)c2cc(S(=O)(=O)O)ccc12 | inactive: > 100 µM
Cc1c(C(=O)/C=C/c2cccc3ccccc23)[n+]([O-])c2ccccc2[n+]1[O-] | inactive: 16.2 µM
COc1cc(CCN)c(OC)c(OC)c1 | inactive: > 100 µM
CCOc1cc(C=O)c2c(ccc3ccc(OC)c(OC)c32)c1OC | inactive: > 100 µM
COC(=O)C(C(=O)C(=O)Nc1nnc(S)[nH]1)c1csc(N)n1 (configuration not stated) | inactive: > 100 µM
CCCCCC[C@@H]1CCC2C(CO)[C@@H](O)CC[C@@H]2C1 (some centres not stated) | inactive: 16.5 µM

Compound | GI50
COc1cccc(C2=NC(C(C)C)CO2)c1 (configuration not stated) | inactive: > 100 µM
CC(C)=CCC/C(C)=C/CC/C(C)=C/C1CCC(=O)C1(C)C (configuration not stated) | inactive: 34.1 µM
c1ccc2cc3n[se]nc3cc2c1 | inactive: 22.5 µM
CC1=C(C(=O)Nc2ccccc2)C2(CCCCC2)C(C#N)=C(SCC(=O)Nc2ccc(Br)cc2)N1 | inactive: 5.58 µM
c1ccc(/N=C2\c3ccccc3CN2c2ccccn2)nc1 | inactive: > 100 µM
O=C(CSc1nc2ccc([N+](=O)[O-])cc2s1)c1ccc2ccccc2c1 | inactive: > 100 µM
Cc1cn(C2CC(OC(c3ccccc3)(c3ccccc3)c3ccccc3)C(COC(c3ccccc3)(c3ccccc3)c3ccccc3)O2)c(=O)[nH]c1=O (configuration not stated) | inactive: 38.2 µM
CC(C)(O)CO/N=C1\C(=C2\C(=O)Nc3ccccc32)Nc2ccccc21 | inactive: 1.42 µM
COC(=O)[C@@H]1C[C@]2(Br)c3ccccc3N(S(=O)(=O)c3ccccc3)[C@@H]2N1C(=O)OC | inactive: > 100 µM
CC(=O)Nc1ccc2c(c1)/C(=C\c1ccc([N+](C)(C)C)cc1)c1ccccc1-2 | inactive: 24.1 µM
CNCCCNc1c2ccccc2nc2cccc([N+](=O)[O-])c12 | active: 0.00562 µM
O/N=C1/C(=C/c2ccc(Oc3ccccc3)cc2)CCCC1C(NO)c1ccc(Oc2ccccc2)cc1 (configuration not stated) | inactive: 95.9 µM
NC(=S)N/N=C1/CCCC2CCCC[C@@H]12 (some centres not stated) | inactive: > 100 µM
C(=N\c1nc2cc3sc(/N=C/c4ccccc4)nc3cc2s1)/c1ccccc1 | inactive: > 100 µM
O=C(CCc1ccc(O)c(O)c1)OCCc1ccccc1 | inactive: 56.8 µM
N#C/C(=C\c1ccc(O)c(O)c1)c1c(C#N)c(N)nn1-c1ccccc1 | inactive: 19.7 µM
O=C1CC[C@@H](NC(=O)Cc2ccccc2)C(=O)N1 | inactive: > 100 µM
Cc1cccc(C(C)(C)C)c1NC(=O)CC1C(=O)Nc2ccccc2[S+]1[O-] (configuration not stated) | inactive: 98.6 µM
CCOc1c(Cc2ccccc2)c(=O)n2c3ccccc3n3c(=O)n(C)c(=O)c1c23 | inactive: > 100 µM
COC(=O)C(Br)C1CCc2ccccc21 (configuration not stated) | inactive: > 100 µM
CC1=C2C3OC(=O)C(C)C3C(O)C[C@@]2(C)C(=O)CC1 (some centres not stated) | inactive: > 100 µM
Nc1cc2nc(-c3ccccc3)cn2cn1 | inactive: 37.5 µM
c1cc2cc(Cc3ccc4[nH]ccc4c3)ccc2[nH]1 | inactive: 19 µM

Compound | GI50
Cc1c(C)c2c(c(N)c1C#N)C(=O)N(NC(=S)Nc1ccccc1)C2=O | inactive: > 100 µM
CC(/C=N/N=C(N)N)=N\N=C(N)N | inactive: 5.79 µM
Cc1ccc2ccc(=O)oc2c1 | inactive: > 100 µM
O=C(c1ccccc1)C(c1ccccc1)C1(O)C(=O)Nc2ccc(Br)cc21 (configuration not stated) | inactive: > 100 µM
Nc1nc(SCCc2ccccc2)c2nc[nH]c2n1 | inactive: 75.5 µM
O=c1c(-c2ccccc2)c(O)nc2[nH]c3ccccc3n12 | inactive: > 100 µM
CNC(=O)OCc1nc(SSC(C)(C)C)n(C)c1COC(=O)NC | inactive: 16 µM
O=c1c2ccc(S(=O)(=O)c3ccc4c(=O)n5c6ccccc6nc5c5cccc3c45)c3cccc(c32)c2nc3ccccc3n12 | inactive: > 100 µM
CN(C)CC(C)(C)C(=O)/C=C/c1ccc(/C=C/C(=O)C(C)(C)CN(C)C)cc1 | inactive: 1.48 µM
C[N+](C)(CCNC(=O)c1cccc2cc3ccccc3nc12)Cc1ccc([N+](=O)[O-])s1 | inactive: > 25 µM
C=CCOC1=C(OCC=C)C(C2COC(C)(C)O2)OC1=O (configuration not stated) | inactive: > 100 µM
Cc1ccc(C(=O)O/N=C2/CCCCC2CN(C)C)cc1 (configuration not stated) | inactive: > 100 µM
CC(C)CC(NC(=O)OC(C)(C)C)C(=O)Nc1ccc(Nc2nc(F)nc(-c3c4ccccc4cn3C)n2)cc1 (configuration not stated) | inactive: 15.7 µM
[O-][S+](Nc1ccccc1)c1ccc(Cl)cc1 (configuration not stated) | inactive: 75.2 µM
Cc1cccc(N(CCC#N)S(=O)(=O)c2ccccc2)c1 | inactive: > 100 µM
COc1ccc(NC(=O)CC(=O)N2N=C(N(c3ccccc3)c3ccccc3)CC2c2ccccc2)cc1 (configuration not stated) | inactive: > 100 µM
CC1=C(O)C(=O)C2C(=O)C1C(C)C2c1ccc(C)cc1 (configuration not stated) | inactive: > 100 µM
COc1ccc2c(c1)OC[C@@H]1c3cc(O)c(OCc4ccccc4)cc3O[C@H]21 | inactive: 38 µM
COc1cc2c(cc1OS(C)(=O)=O)N=C[C@@H]1CCCN1C2=O | inactive: > 100 µM
O=C(/C=C/c1ccc(O)cc1)c1cc(-c2cc(CCC(=O)c3ccc(O)cc3O)ccc2O)c(O)cc1O | inactive: 15.8 µM
CCOC(=O)/C(C(=O)Nc1cccc(C(F)(F)F)c1)=C(/N)N1CCCC1 | inactive: 79.3 µM
CCCCCCCCC[n+]1cccc(C2C(C(=O)OCC)=C(C)NC(C)=C2C(=O)OCC)c1 | inactive: 16 µM
O=S(=O)(O)c1ccc2c(/N=N/c3ccc(Cl)cc3)c(O)ccc2c1 | inactive: > 100 µM

Reference: ChEMBL document CHEMBL1201862, “PubChem BioAssay data set” (2004)
